Results reported in the supplement of paper PMC3334620.
Over roughly 33,000 sequences, “E-score (-0.5 to 0.5)” has its median near -0.036; the highest 2% begin near 0.37. This is one part of the list.

The sequences below were run against T1, Yer064c (UniProt P40041) (assay: PBM E-score (8-mer binding enrichment) (E-score (-0.5 to 0.5)); higher = stronger / more preferred TF binding; most listed sequences are background and not binding sites). Settings: protein concentration: 200 nM; construct: GST-full length.
T1 sequence: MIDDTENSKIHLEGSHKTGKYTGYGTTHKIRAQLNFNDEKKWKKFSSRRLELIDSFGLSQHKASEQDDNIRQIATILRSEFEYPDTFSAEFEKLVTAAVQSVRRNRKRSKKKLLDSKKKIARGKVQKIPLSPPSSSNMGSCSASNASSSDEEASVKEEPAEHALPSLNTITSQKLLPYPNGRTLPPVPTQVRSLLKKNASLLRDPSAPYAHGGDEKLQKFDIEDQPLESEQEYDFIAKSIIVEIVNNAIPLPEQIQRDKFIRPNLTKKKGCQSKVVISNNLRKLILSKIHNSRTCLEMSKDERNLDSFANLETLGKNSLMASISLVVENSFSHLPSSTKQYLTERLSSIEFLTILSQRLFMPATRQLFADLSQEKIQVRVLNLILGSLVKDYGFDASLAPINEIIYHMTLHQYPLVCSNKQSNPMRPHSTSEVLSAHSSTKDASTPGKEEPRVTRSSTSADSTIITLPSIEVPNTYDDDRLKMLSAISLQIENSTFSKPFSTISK
Procedure, shortened: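 PURExpress in vitro transcription/translation supplied GST-tagged yeast transcription factors, either full-length or DNA-binding domain. Applied at about 100-200 nM to universal all-10-mer Agilent arrays double-stranded by primer extension, the bound protein was detected with fluorescent anti-GST. E-scores, modified Wilcoxon-Mann-Whitney statistics, were given by the Universal PBM Analysis Suite to ungapped eight-base words pooled with their reverse complements after masliner normalisation.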

Sequence | PBM E-score
ACTAGTAA | 0.256
CACTTGGA | -0.00507
AGGCCCTA | -0.248
AGATACTA | 0.0696
GACTGAAA | 0.352
AGCCATCA | 0.299
CGAAAACC | -0.0887
AATATTAT | 0.0993
CGTTAACC | 0.0597
TCTAGGAA | 0.106
GAGAAAGA | 0.107
CTAAGTCA | 0.449
GGTTGGCA | -0.217
CATTCGTC | -0.0179
AATTCGCC | 0.0807
ATAGCTGC | 0.00331
GCGGGCAA | -0.0796
CCCGAGAG | -0.217
CCCAACTA | -0.119
CTACGTGA | 0.0339
ACTACGTA | 0.164
ACACCATA | 0.0514
CCCATCTA | -0.0727
ATGATCCA | 0.111
GCGTTTGA | -0.083

Sequence | PBM E-score
AATATTGT | 0.0413
AGCATATC | -0.158
TAACCATA | 0.224
AATCTAAC | 0.0147
CTGCCATA | -0.154
AGCGCTAC | 0.0144
AAAGAGGG | -0.22
TGGATCCA | -0.00353
GGCGAAAC | -0.0459
GTAGATGA | 0.206
AGTGTTAT | -0.0428
AATCTTAG | 0.244
GATCCCAC | -0.0884
ATTTGCGC | -0.111
AAGGAAGT | 0.0788
ATCTTGTG | -0.0245
CCCCGGCC | -0.295
CATAACCG | -0.102
CGCCTCGA | -0.256
ATCCTCAG | 0.0699
AACAAAGC | -0.14
AGTTTCAT | 0.109
CCCCTACA | -0.193
ACGCAAAA | -0.00655
GCAGCATA | -0.172

Sequence | PBM E-score
CCACCGCA | -0.132
TACATTCA | -0.0847
TGACGACA | 0.102
CCCGCGCA | -0.1
GGTTTTAC | -0.144
CCTTCCGA | -0.0766
TACAGACA | 0.139
GCACTGGC | -0.194
AACGGTAG | -0.0657
ATGCTTAC | -0.233
GATCGTGC | -0.103
CTTCGAAG | -0.129
CACCAGAC | 0.0322
GAAAAGCA | -0.0862
CCGCCGCC | -0.183
GCAAGCAA | -0.0795
AATTGGAG | 0.00265
CAAATTTA | 0.0132
CATGCGAC | 0.153
GAGCACAA | 0.0121
ACTCGTCC | 0.318
GCGCGCGA | 0.0216
ACAGATGT | -0.184
ACTTGGAG | -0.131
AGTCGACT | 0.357

Sequence | PBM E-score
AGGTTTGC | 0.0639
ACTATGGC | 0.138
GGTGCGCA | -0.115
ATTCGACG | -0.00215
ATACCCAC | 0.0958
AGTGTGGA | -0.0452
TATTCAAA | 0.135
GACGAAAC | -0.0278
ACATTCCC | -0.0936
CTCATCAG | 0.286
GCTTCACC | -0.155
ATGTTTAG | 0.141
TCTCCCAA | 0.112
AGGACCGA | 0.0116
CAGCGTGA | 0.188
AGGATTTA | 0.0196
AGTGTCAT | 0.0731
AAGATAAA | 0.0265
ACGCGAGG | -0.163
AAGCGGTA | -0.24
CCTCTATC | -0.0843
ATGACACC | 0.032
ACTCCTAG | 0.0989
GGGGCTGA | -0.0142
TCGGAACA | 0.0871

Sequence | PBM E-score
AATGGACG | -0.105
GAGCGTCC | -0.254
AGAGTCGC | 0.396
AAGGGCCT | -0.285
ATTTAACG | 0.129
AATGTTGG | -0.231
GAAACCGC | 0.0639
CGTAGCCC | -0.0851
CCAATGCC | -0.314
ACGTATCT | -0.217
GCACTACA | -0.172
ATCGATTA | 0.246
AATATCTG | -0.166
CACTGGGA | -0.111
TAGTTCCA | 0.0532
AGGGGGGA | -0.362
AATGGTGC | -0.324
ATTCTTCA | 0.118
GACTGATA | 0.239
CGGTACAC | -0.172
ACTAACGC | 0.125
AACAAGAC | 0.14
AGCTCCGC | -0.216
ACTGAACC | 0.0953
CTGATGTC | -0.0215

Sequence | PBM E-score
GGGCATCA | -0.0947
AACGGCGA | -0.0243
ATCTTAAC | 0.156
CGCGCGGC | -0.139
CAAAAAGC | 0.0801
ATTGTCCA | -0.00809
AGGTTTAG | 0.0773
AACAATTC | 0.00365
CAGGTCTC | -0.119
TATCCCGA | -0.0789
AATTAGTG | 0.0657
CCTGGCAC | -0.304
CTATTAAA | 0.124
TCGTTCAA | 0.139
GAATCCCA | 0.0684
CAGGGCCG | -0.183
AGTATAAC | 0.0515
CGGAGTCA | 0.477
CCCGGCTA | -0.235
GGTTAACA | 0.139
ATTGCTGC | -0.184
CAACCCTC | -0.118
ACCTTAGA | -0.0208
AGAAGCTG | -0.115
AGGATGCC | -0.137

Sequence | PBM E-score
ACAGATTA | -0.0211
AGTAGAAC | -0.0751
GGATCTTA | -0.0941
ATCATAAC | 0.26
CCAGTAGA | 0.0795
CTAGAAGC | -0.156
AGCATTCG | -0.349
AATGTGCG | -0.204
ACAAAGGC | -0.232
AGAACATC | -0.174
GGCACTGA | -0.0198
AGCTTCTG | -0.163
CTAACTTC | 0.0876
AACGTGCC | -0.239
GCTTCAAA | -0.158
GGACCTCA | -0.0461
ATGAGGGC | -0.332
AGCTTAAA | 0.2
CGGTAAGC | -0.107
AACCTATG | 0.0309
GTCGCGAC | 0.222
CCGCAAGC | -0.268
